Hit rate of the full screen: of about 16,000 compounds, about 120 (0.75%) were called active. About 4% were inconclusive and are not listed. Calls follow the shape of the dose curve; as a rule, active = well fitted inhibition curve with a large enough effect; inconclusive = small, poorly fitted or top-dose-only effect; inactive = no such curve, though single readings can be large or run the other way. The list shows a part of the results. Where a SMILES comes first, the peptide text is derived from it. [ ]: non-standard residue; d: D form. The star is where a group is joined. Sta = CC(C)C[C@H](N)[C@@H](O)CC(=O)O; Isovaleryl = CC(C)CC(=O)*
What follows are molecules tested against Rap guanine nucleotide exchange factor 3 (Homo sapiens) (UniProt O95398) (assay: Validation qHTS for antagonist of cAMP-regulated guanine nucleotide exchange factor 3 (EPAC1)). Conditions: EPAC1 Rap1B-BODIPY-GDP exchange, fluorescence; series mostly up to 150 µM; activity change, negative = inhibition: at the top concentration.
Sequence of UniProt O95398 (O95398 whole entry, looked up): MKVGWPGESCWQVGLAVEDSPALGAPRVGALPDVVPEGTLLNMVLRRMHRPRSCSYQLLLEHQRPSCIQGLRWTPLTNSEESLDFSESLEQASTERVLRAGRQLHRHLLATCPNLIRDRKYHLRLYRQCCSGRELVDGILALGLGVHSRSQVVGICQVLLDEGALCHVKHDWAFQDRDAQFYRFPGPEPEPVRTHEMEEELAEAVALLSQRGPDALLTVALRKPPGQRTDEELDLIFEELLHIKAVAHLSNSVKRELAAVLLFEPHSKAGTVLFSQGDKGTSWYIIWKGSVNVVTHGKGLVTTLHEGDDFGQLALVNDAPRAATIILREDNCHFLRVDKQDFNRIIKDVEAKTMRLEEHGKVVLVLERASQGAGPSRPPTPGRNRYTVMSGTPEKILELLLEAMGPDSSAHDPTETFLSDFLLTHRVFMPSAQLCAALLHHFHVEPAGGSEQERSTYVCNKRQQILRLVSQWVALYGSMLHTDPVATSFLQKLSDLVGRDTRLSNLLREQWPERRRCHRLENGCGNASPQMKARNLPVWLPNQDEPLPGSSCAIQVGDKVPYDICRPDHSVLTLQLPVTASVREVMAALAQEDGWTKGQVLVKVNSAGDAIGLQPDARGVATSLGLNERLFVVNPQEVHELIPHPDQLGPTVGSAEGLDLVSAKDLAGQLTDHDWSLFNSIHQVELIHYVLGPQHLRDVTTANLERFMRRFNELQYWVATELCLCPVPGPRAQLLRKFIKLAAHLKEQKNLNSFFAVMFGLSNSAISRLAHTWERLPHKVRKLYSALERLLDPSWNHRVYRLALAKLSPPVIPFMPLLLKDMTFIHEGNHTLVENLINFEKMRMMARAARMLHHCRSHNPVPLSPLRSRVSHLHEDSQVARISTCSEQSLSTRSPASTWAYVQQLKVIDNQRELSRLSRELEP
Procedure, shortened: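 EPAC1 (100 nM) mixed with 250 nM RAP1B-BODIPY-GDP and 50 uM GDP; compounds in concentration series, 5 min at room temperature. Fluorescence (ex 480/em 540 nm) read every 5 min for 30 min; normalized to ATA control and DMSO.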
Also: nearly all actives have a fitted effect of over 75% in size.

Activity change, negative = inhibition, inactive:
OCC1O[C@H](O)C(Cl)C(O)C1O (some centres not stated) 10.9% [at 75.8 µM]
Cn1cnnc1Sc1ccc(CN2CCOc3ccc(C4=Cc5ccccc5C4)cc3C2)o1 -13%
N[C@H](Cn1ccc(=O)c(O)c1)C(=O)O 0.519%
O=C(O)C1Cc2c([nH]c3ccccc23)C(c2coc3ccccc3c2=O)N1 (configuration not stated) -5.79%
CCC(=O)c1c(O)cc(O)cc1O 18.2%
N#Cc1cccc(-c2nccc(NCc3cccs3)n2)c1 -19.3%
COCCn1c(=O)c(C)nc2cnc(N3CCNCC3)nc21 23.6%
COc1ccc(Oc2ncc3nc(-c4cccs4)c(=O)n(-c4ccccc4)c3n2)cc1 0.137%
C=CC(C)(O)CC1[C@@]2(C)CCCC(C)(C)C2CC[C@]1(C)O (some centres not stated) -20.3%
CNCC(O)c1cccc(O)c1 (configuration not stated) 15.7%
O=C(NCC(O)CO)c1c(I)c(C(=O)NCC(O)CO)c(I)c(N(CCO)C(=O)CO)c1I (configuration not stated) 11.6% [at 75.8 µM]
CCOc1ccc(/C=C/C(=O)c2cccs2)cc1 7.23%
CCN(C)C(=O)Oc1cccc([C@H](C)N(C)C)c1 -3.99%
Nc1ccc(S(=O)(=O)Nc2ccnn2-c2ccccc2)cc1
CCNc1ncc2nc(C)c(=O)n(CCOC)c2n1 11.4%
COC(=O)C(c1ccccc1Cl)N1CCc2sccc2C1 (configuration not stated)
Cc1ccccc1-c1nc(N2CCN(C)CC2)c2ccccc2n1 -1.62%
CCCCCCCCCCCCCCCCCC(=O)OCC(C)O (configuration not stated) -4.81%
COc1cc(/C=C(\C#N)C(N)=O)cc(CSc2nc3ccccc3s2)c1O
CC(=O)c1ccc(OCC(=O)N2CCCCC2)cc1 5.82%
COc1ccccc1-c1ccnc(-n2ncc(C(=O)N(C)CCc3ccccn3)c2C)n1 19.1%
CCOCC(O)COc1ccc(NC(=O)CC[S+](C)C)cc1 (configuration not stated) -6.92%
COc1cccc(Nc2ncc3nc(-c4cc(F)cc(F)c4)c(=O)n(CCC#N)c3n2)c1 -1.94%
Nc1nc(NCCc2ccc(O)cc2)nc2nc(-c3ccco3)nn12
CCCCCCCCCCCC(=O)N(CCO)CCO -3.76%
COc1cc(OC)c(OC)cc1CN1CCOc2ccc(CN3C[C@@H](C)O[C@@H](C)C3)cc2C1 15.5%
CC1(C)C(O)C=C[C@@]2(C)C1CC(=O)O[C@@]1(C)C3=CC(=O)OC(c4ccoc4)[C@]3(C)CCC21 (some centres not stated) -12%
COC(=O)c1ccc(O)cc1 26.6%
COc1c(-c2ccc(O)c(O)c2)oc2cc(O)cc(O)c2c1=O -17.7%
FC(F)(F)c1ccccc1-c1cncnc1Nc1ccccc1 15.4%
COc1ccc(Oc2ncc3nc(-c4ccc(OC)cc4)c(=O)n(CCC#N)c3n2)cc1 13.6%
C[C@@H]1C[C@H]2[C@@H]3C[C@H](F)C4=CC(=O)C(Cl)=C[C@]4(C)[C@@]3(F)[C@@H](O)C[C@]2(C)[C@@]1(O)C(=O)CO 4.42%
O=C(c1csnn1)N1CCC2(CC1)CN(Cc1cc(C(F)(F)F)cc(C(F)(F)F)c1)C2 4.06%
C=CCN1CCc2c(cc(O)c(O)c2Br)[C@@H](c2ccccc2)C1
Cc1ccc(SC[C@H](Cc2ccccc2)N2CC[C@@H](C)CCC2=O)cc1 0.679%
NC(=O)C1CCCN(Cc2ccc3c(c2)CN(Cc2cn[nH]c2-c2ccc(F)cc2)CCO3)C1 (configuration not stated) 11.3%
Nc1ccn([C@@H]2O[C@H](CO)[C@H](O)C2(F)F)c(=O)n1 -0.378%
COC(=O)C[C@H]1c2cc(F)ccc2S(=O)(=O)N1Cc1ccccc1 8.59%
CC(=O)N1CCN(C(=O)c2sc3ncnc(NCC4CCCO4)c3c2C)CC1 (configuration not stated) -4.54%
Cc1c(C(=O)N2CCCCC2c2cccnc2)sc2ncnc(NCc3cccs3)c12 (configuration not stated) 0.719%
Nc1nc2c(nc(Br)n2C2CC(O)C(CO)O2)c(=O)[nH]1 (configuration not stated) 13.3%
Cc1cnc(C)c(-c2ccc(F)c3c2OC(CNC(=O)Cc2c(F)cccc2F)C3)n1 (configuration not stated) 0.688%
CCOC(=O)C12CC1/C(=N/O)c1ccccc1O2 (configuration not stated) -1.93% [at 75.8 µM]
CCC1CN(CCC(=O)N2CCN(c3ncccn3)CC2)Cc2cc(OC)ccc2O1 (configuration not stated) 26.2%
COCc1c(C(=O)N2CCC(c3ccccc3)CC2)cnn1-c1nccc(-c2cc(C)sc2C)n1 -3.77%
O=c1cc[nH]c(=S)[nH]1 13.5%
CCCCC/C=C\C\C=C/C=C/C=C/[C@@H](SC[C@H](N)C(=O)O)[C@@H](O)CCCC(=O)O 19.2% [at 1.57 µM]
c1ccc(CCNc2nc(-c3ccccc3)cs2)cc1 -8.16%
Cc1cnc(SCc2ccccn2)nc1C1CCCN(C(=O)c2noc3c2CCCC3)C1 (configuration not stated) 12.5%
Cc1nc2cnc(N3CCNCC3)nc2n(CCc2ccccc2)c1=O -3.54%
CC(C)CC(=O)N[C@H](C(=O)N[C@H](C(=O)N[C@@H](CC(C)C)[C@@H](O)CC(=O)N[C@@H](C)C(=O)N[C@@H](CC(C)C)[C@@H](O)CC(=O)O)C(C)C)C(C)C (Isovaleryl-VV[Sta]A[Sta]-OH)
Cc1onc(-c2ccccc2)c1C(=O)NC1C(=O)N2C(C(=O)O)C(C)(C)S[C@@H]12 (some centres not stated) 3.53%
CO[C@H]1[C@H](NC(=O)c2ccsc2)c2ccccc2C12CCN(Cc1cc3ccccc3o1)CC2 -12.6%
CCC(C(=O)O)c1ccccc1 (configuration not stated) 7.49%
COc1cccc(Cn2c(=O)c(C)nc3cnc(OC)nc32)c1 19.2%
CCN(CC)CCOc1ccc2nc(N(C)C)sc2c1 0.343%
c1ccc(C(NCc2cccnc2)(c2ccccc2)c2ccccc2)cc1 -2.45% [at 75.8 µM]
Cc1cnc(CNc2nc(-c3cccnc3)nc3ccccc23)cn1 10%
Cc1cccc(C#Cc2ccccc2)n1
N[C@H](C(=O)O)c1cc(O)cc(O)c1
CNc1cc(-c2c(C)noc2C)ncn1 -16.3%
C[C@@](N)(C(=O)O)c1ccc(P(=O)(O)O)cc1 5.12%
CCc1nc2cc(C(=O)N[C@H]3CCCCNC3=O)cc(NC(=O)c3ccccc3OC)c2n1C 19.4%
C[C@H](O)C(=O)Nc1c(I)c(C(=O)NC(CO)CO)c(I)c(C(=O)NC(CO)CO)c1I 12.9% [at 75.8 µM]
CCCC(=O)NCCc1c2n(c3ccc(OC)cc13)CCCc1ccccc1-2 -13.2% [at 75.8 µM]
O=C1CC2(CCCC2)CC(=O)N1CCCCN1CCN(c2ncccn2)CC1
COc1ccc(N2CCN(C(=O)c3cc(NC(C)=O)c4c(c3)ncn4CCc3ccccn3)CC2)cc1 -0.21%
